In the supplement of paper PMC8728848:
This is one part of the list.

Key:
Experiment in all cases: glycan array binding signal (z-score within array); higher = stronger binding
Conditions in all cases: glycan notation: IUPAC condensed, linker removed
Glc(b1-3)Glc(b1-3)Glc = molecular target: Glc(b1-3)Glc(b1-3)Glc
In short: (§1)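 Arrays were curated from the Consortium for Functional Glycomics database, 3228 in total, and kept only where the protein sequence was available. Binding is expressed as a within-array Z-score. This score was averaged across arrays of the same protein sequence at different concentrations or buffers and across linkers, and negative values can be read as non-binding.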

[1] = molecular target: Glc(b1-3)Glc(b1-3)Glc(b1-3)Glc
In short: as §1

[2] = molecular target: Glc(b1-3)Glc(b1-3)Glc(b1-3)Glc(b1-3)Glc
In short: as §1

[3] = molecular target: Glc(b1-3)Glc(b1-3)Glc(b1-3)Glc(b1-3)Glc(b1-3)Glc
In short: as §1

[4] = molecular target: Glc(b1-3)Glc(b1-3)Glc(b1-3)Glc(b1-3)Glc(b1-3)Glc(b1-3)Glc
In short: as §1

[5] = molecular target: Glc(b1-3)Glc(b1-3)Glc(b1-3)Glc(b1-3)Glc(b1-3)Glc(b1-3)Glc(b1-3)Glc
In short: as §1

[6] = molecular target: Glc(b1-3)Glc(b1-3)Glc(b1-3)Glc(b1-3)Glc(b1-3)Glc(b1-3)Glc(b1-3)Glc(b1-3)Glc
In short: as §1

[7] = molecular target: Glc(b1-3)Glc(b1-3)Glc(b1-3)Glc(b1-3)Glc(b1-3)Glc(b1-3)Glc(b1-3)Glc(b1-3)Glc(b1-3)Glc
In short: as §1

[8] = molecular target: Glc(b1-3)Glc(b1-3)Glc(b1-3)Glc(b1-3)Glc(b1-3)Glc(b1-3)Glc(b1-3)Glc(b1-3)Glc(b1-3)Glc(b1-3)Glc
In short: as §1

[9] = molecular target: Glc(b1-3)Glc(b1-3)Glc(b1-3)Glc(b1-3)Glc(b1-3)Glc(b1-3)Glc(b1-3)Glc(b1-3)Glc(b1-3)Glc(b1-3)Glc(b1-3)Glc
In short: as §1

[10] = molecular target: Glc(b1-3)Glc(b1-3)Glc(b1-3)Glc(b1-3)Glc(b1-3)Glc(b1-3)Glc(b1-3)Glc(b1-3)Glc(b1-3)Glc(b1-3)Glc(b1-3)Glc(b1-3)Glc
In short: as §1

Glc(b1-4)Glc = molecular target: Glc(b1-4)Glc
In short: as §1

Glc(b1-4)Glc(b1-4)Glc = molecular target: Glc(b1-4)Glc(b1-4)Glc
In short: as §1

[11] = molecular target: Glc(b1-4)Glc(b1-4)Glc(b1-4)Glc
In short: as §1

[12] = molecular target: Glc(b1-4)Glc(b1-4)Glc(b1-4)Glc(b1-4)Glc
In short: as §1

[13] = molecular target: Glc(b1-4)Glc(b1-4)Glc(b1-4)Glc(b1-4)Glc(b1-4)Glc
In short: as §1

[14] = molecular target: Glc(b1-4)Glc(b1-4)Glc(b1-4)Glc(b1-4)Glc(b1-4)Glc(b1-4)Glc(b1-4)Glc
In short: as §1

[15] = molecular target: Glc(b1-4)Glc(b1-4)Glc(b1-4)Glc(b1-4)Glc(b1-4)Glc(b1-4)Glc(b1-4)Glc(b1-4)Glc
In short: as §1

[16] = molecular target: Glc(b1-4)Glc(b1-4)Glc(b1-4)Glc(b1-4)Glc(b1-4)Glc(b1-4)Glc(b1-4)Glc(b1-4)Glc(b1-4)Glc
In short: as §1

[17] = molecular target: Glc(b1-4)Glc(b1-4)Glc(b1-4)Glc(b1-4)Glc(b1-4)Glc(b1-4)Glc(b1-4)Glc(b1-4)Glc(b1-4)Glc(b1-4)Glc
In short: as §1

[18] = molecular target: Glc(b1-4)Glc(b1-4)Glc(b1-4)Glc(b1-4)Glc(b1-4)Glc(b1-4)Glc(b1-4)Glc(b1-4)Glc(b1-4)Glc(b1-4)Glc(b1-4)Glc
In short: as §1

[19] = molecular target: Glc(b1-4)Glc(b1-4)Glc(b1-4)Glc(b1-4)Glc(b1-4)Glc(b1-4)Glc(b1-4)Glc(b1-4)Glc(b1-4)Glc(b1-4)Glc(b1-4)Glc(b1-4)Glc
In short: as §1

Glc(b1-6)Glc = molecular target: Glc(b1-6)Glc
In short: as §1

Glc(b1-6)Glc(b1-6)Glc = molecular target: Glc(b1-6)Glc(b1-6)Glc
In short: as §1

[20] = molecular target: Glc(b1-6)Glc(b1-6)Glc(b1-6)Glc
In short: as §1

[21] = molecular target: Glc(b1-6)Glc(b1-6)Glc(b1-6)Glc(b1-6)Glc
In short: as §1

[22] = molecular target: Glc(b1-6)Glc(b1-6)Glc(b1-6)Glc(b1-6)Glc(b1-6)Glc
In short: as §1

[23] = molecular target: Glc(b1-6)Glc(b1-6)Glc(b1-6)Glc(b1-6)Glc(b1-6)Glc(b1-6)Glc
In short: as §1

[24] = molecular target: Glc(b1-6)Glc(b1-6)Glc(b1-6)Glc(b1-6)Glc(b1-6)Glc(b1-6)Glc(b1-6)Glc
In short: as §1

[25] = molecular target: Glc(b1-6)Glc(b1-6)Glc(b1-6)Glc(b1-6)Glc(b1-6)Glc(b1-6)Glc(b1-6)Glc(b1-6)Glc
In short: as §1

GlcA(b1-3)Gal = molecular target: GlcA(b1-3)Gal
In short: as §1

[26] = molecular target: GlcA(b1-3)Gal(b1-3)GlcNAc
In short: as §1

GlcA(b1-3)Gal(b1-4)Glc = molecular target: GlcA(b1-3)Gal(b1-4)Glc
In short: as §1

[27] = molecular target: GlcA(b1-3)Gal(b1-4)GlcNAc(b1-3)Gal(b1-4)Glc
In short: as §1

[28] = molecular target: GlcA(b1-3)Gal(b1-4)GlcNAc(b1-3)Gal(b1-4)GlcNAc(b1-3)Gal(b1-4)Glc
In short: as §1

[29] = molecular target: GlcA(b1-3)GlcNAc(b1-4)GlcA(b1-3)GlcNAc
In short: as §1

[30] = molecular target: GlcA(b1-3)GlcNAc(b1-4)GlcA(b1-3)GlcNAc(b1-4)GlcA(b1-3)GlcNAc(b1-4)GlcA(b1-3)GlcNAc(b1-4)GlcA(b1-3)GlcNAc(b1-4)GlcA(b1-3)GlcNAc(b1-4)GlcA(b1-3)GlcNAc
In short: as §1

[31] = molecular target: GlcA(b1-3)GlcNAc(b1-4)GlcA(b1-3)GlcNAc(b1-4)GlcA(b1-3)GlcNAc(b1-4)GlcA(b1-3)GlcNAc(b1-4)GlcA(b1-3)GlcNAc(b1-4)GlcA(b1-3)GlcNAc(b1-4)GlcA(b1-3)GlcNAc(b1-4)GlcA(b1-3)GlcNAc
In short: as §1

[32] = molecular target: GlcA(b1-4)GlcNAc(a1-4)GlcA(b1-4)2,5-Anhydro-Man
In short: as §1

[33] = molecular target: GlcA(b1-4)GlcNAc(a1-4)GlcA(b1-4)GlcNAc(a1-4)GlcA(b1-4)GlcNAc(a1-4)GlcA(b1-4)2,5-Anhydro-Man
In short: as §1

GlcA3S(b1-3)Gal = molecular target: GlcA3S(b1-3)Gal
In short: as §1

GlcA3S(b1-3)Gal(b1-4)Glc = molecular target: GlcA3S(b1-3)Gal(b1-4)Glc
In short: as §1

[34] = molecular target: GlcA3S(b1-3)Gal(b1-4)GlcNAc(b1-3)Gal(b1-4)Glc
In short: as §1

[35] = molecular target: GlcA3S(b1-3)Gal(b1-4)GlcNAc(b1-3)Gal(b1-4)GlcNAc(b1-3)Gal(b1-4)Glc
In short: as §1

GlcNAc(a1-4)Gal = molecular target: GlcNAc(a1-4)Gal
In short: as §1

B1: ZG16p (Homo sapiens), O60844 (protein)
chain: ARSSSYSGEYGGGGGKRFSHSGNQLDGPITALRVRVNTYYIVGLQVRYGKVWSDYVGGRNGDLEEIFLHPGESVIQVSGKYKWYLKKLLFVTDKGRYLSFGKDSGTSFNAVPLHPNTVLRFISGRSGSLIDAIGLHWDVYPSSCSRC
In the case of B1, the “glycan array binding signal (z-score)” value (Glc(b1-3)Glc(b1-3)Glc) is reported as 0.455, the “glycan array binding signal (z-score)” value [1] is reported as 0.797 and the “glycan array binding signal (z-score)” value [2] is reported as 0.602. The “glycan array binding signal (z-score)” value [3] was 1.25, the “glycan array binding signal (z-score)” value [4] was -0.027 and the “glycan array binding signal (z-score)” value [5] was 0.02. For the same binder, the “glycan array binding signal (z-score)” value [6] was 0.089, the “glycan array binding signal (z-score)” value [7] was -0.076 and the “glycan array binding signal (z-score)” value [8] was 0.028. The “glycan array binding signal (z-score)” value [9] was 0.262, the “glycan array binding signal (z-score)” value [10] was -0.12 and the “glycan array binding signal (z-score)” value (Glc(b1-4)Glc) was 0.043. For the same binder, the “glycan array binding signal (z-score)” value (Glc(b1-4)Glc(b1-4)Glc) was -0.054, the “glycan array binding signal (z-score)” value [11] was -0.149 and the “glycan array binding signal (z-score)” value [12] was -0.328. The “glycan array binding signal (z-score)” value [13] was 0.102, the “glycan array binding signal (z-score)” value [14] was -0.028 and the “glycan array binding signal (z-score)” value [15] was 0.1. For the same binder, the “glycan array binding signal (z-score)” value [16] was -0.322, the “glycan array binding signal (z-score)” value [17] was -0.187 and the “glycan array binding signal (z-score)” value [18] was -0.171. For the same binder, the “glycan array binding signal (z-score)” value [19] was -0.259, the “glycan array binding signal (z-score)” value (Glc(b1-6)Glc) was 2.7 and the “glycan array binding signal (z-score)” value (Glc(b1-6)Glc(b1-6)Glc) was 0.72. For the same binder, the “glycan array binding signal (z-score)” value [20] was 0.263, the “glycan array binding signal (z-score)” value [21] was 0.205 and the “glycan array binding signal (z-score)” value [22] was -0.164. The “glycan array binding signal (z-score)” value [23] was -0.016, the “glycan array binding signal (z-score)” value [24] was 0.051 and the “glycan array binding signal (z-score)” value [25] was 0.274. The “glycan array binding signal (z-score)” value (GlcA(b1-3)Gal) was -0.328, the “glycan array binding signal (z-score)” value [26] was -0.328 and the “glycan array binding signal (z-score)” value (GlcA(b1-3)Gal(b1-4)Glc) was -0.328. For the same binder, the “glycan array binding signal (z-score)” value [27] was -0.328, the “glycan array binding signal (z-score)” value [28] was -0.328 and the “glycan array binding signal (z-score)” value [29] was -0.328. For the same binder, the “glycan array binding signal (z-score)” value [30] was -0.328, the “glycan array binding signal (z-score)” value [31] was -0.512 and the “glycan array binding signal (z-score)” value [32] was -0.25. For the same binder, the “glycan array binding signal (z-score)” value [33] was -0.228, the “glycan array binding signal (z-score)” value (GlcA3S(b1-3)Gal) was -0.328 and the “glycan array binding signal (z-score)” value (GlcA3S(b1-3)Gal(b1-4)Glc) was -0.16. The “glycan array binding signal (z-score)” value [34] was -0.327, the “glycan array binding signal (z-score)” value [35] was -0.299 and the “glycan array binding signal (z-score)” value (GlcNAc(a1-4)Gal) was 0.222.
